Reference: patent US20260062452A1 (CYTIVA BIOPROCESS R AND D, published 2026)

Molecular target: T1, trastuzumab Fc fragment (Homo sapiens (Human), UniProt P0DOX5, in part = IgG part)
T1 construct: also called Fc region of trastuzumab
Experiment: SPR (Biacore 8K+), polypeptide immobilised on CM5 chip, trastuzumab Fc fragment 5000 nM as analyte, 600 s injection, 600 s dissociation

B1: VH3 binding polypeptide Fr32 (SEQ ID NO:14) (designed binder)
chain: VDAKFDKEAYRALAEIARLPNLTEEQRAAFIQSLKDDPSVSKAILAEAKKLNDAQAPK
- binding result: no binding (tested: 5000 nM)

B2: VH3 binding polypeptide Fr33 (SEQ ID NO:15) (designed binder)
chain: B1 chain with A29G
- binding result: no binding (tested: 5000 nM)

Positions count from the first letter of the chain named.
